Measurements: the RNAGym collection of RNA variant scans (doi:10.1093/nar/gkz1192)
Read counts are not given, so values of variants with three or more changes are uncertain.

B1: CPEB3 Ribozyme (parent)
chain: UAACAGGGGGCCACAGCAGAAGCGUUCACGUCGCAGCCCCUGUCAGAUUCUGGUGAAUCUGCGAAUUCUGCUGUAUAUCUC

Variants of: B1
Assay: self-cleavage, relative activity (ratio to wild type); higher = more cleavage; in vitro, sequencing
Procedure, shortened: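 Libraries of CPEB3 self-cleaving ribozyme mutants came from rounds of error-prone PCR and carried barcodes, which DNA sequencing matched to variants. In vitro transcription used T7 RNA polymerase at 37°C for 5 hours, with a further 15 min in DNase I before EDTA stopped the reaction; the ribozymes cleaved during both steps. The RNA was reverse transcribed with template switching and sequenced on Illumina. Relative activity is the cleaved/total read fraction of a variant divided by that of the unmutated ribozyme, averaged over three batches with at least 5 reads.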

| Variant | self-cleavage |
| --- | --- |
| UAACUGGGGGCCACAGCAGAAGCGUGCACGUCGCAGCCCCUGUCAGAUUCUGGUGAACCUGCGAAUUCUGCUGUAUAUCUC [A5U U26G U58C] | 0.1 |
| UAACUGGGGGCCACAGCAGAAGCGUGCACGUCGCAGCCCCUGUCAGAUUCUGGUGAAUCUGCGAAUUCUGCUGUAUAUCCC [A5U U26G U80C] | 0.18 |
| UAACUGGGGGCCACAGCAGAAGCGUUCACGACGCGGCCCCUGUCAGAUUCUGGUGAAUCUGCGAAUUCUGCUGUAUAUCUC [A5U U31A A35G] | 1.21 |
| UAACUGGGGGCCACAGCAGAAGCGUUCACGACGCAGCCCCUGUCGGAUUCUGGUGAAUCUGCGAAUUCUGCUGUAUAUCUC [A5U U31A A45G] | 0.45 |
| UAACUGGGGGCCACAGCAGAAGCGUUCACGACGCAGCCCCUGUCUGGUUCUGGCGAAUCUGCGAAUUCAGCUGUAUAUCUC [A5U U31A A45U A47G U54C U69A] | 0.17 |
| UAACUGGGGGCCACAGCAGAAGCGUUCACGACGCAGCCCCUGUCAGAUUCUGGUGAUUCUGCGAAUUCUGCUGUAUAUCUC [A5U U31A A57U] | 0.19 |
| UAACUGGGGGCCACAGCAGAAGCGUUCACGACGCAGCCCCUCUCAGAUUCUGGUGAAUCUGCGAAUUCUGCUGUAUAUCUC [A5U U31A G42C] | 0.26 |
| UAACUGGGGGCCACAGCAGAAGCGUUCACGACGCAGCCCCUGUCAGAUUCUGGUGAAUCAGCGAAUUCUGCUGUAUAUCUC [A5U U31A U60A] | 0.4 |
| UAACUGGGGGCCACAGCAGAAGCGUUCACGACGCAGCCCCUGUCAGAUUCUGGUGAAUCUGCGAAUUCUGCAGUAUAUCUC [A5U U31A U72A] | 0.42 |
| UAACUGGGGGCCACAGCAGAAGCGUUCACGACGCAGCCCCUGUCAGAUUCUGGUGAAUCUGCGAAUUCUGCUGUAUAUCAC [A5U U31A U80A] | 0.98 |
| UAACUGGGGGCCACAGCAGAAGCGUUCACGCCGCAGCCCCUGUCAGUUUCAGGUGAAUCUGCGAACUCUGCCGUAUAUCUC [A5U U31C A47U U51A U66C U72C] | 0.07 |
| UAACUGGGGGCCACAGCAGAAGCGUUCACGCCGCAGCCCCUGUCAGAUUCUGGUGUAUCUGCGAAUUCUGAUGUAUAUCUC [A5U U31C A56U C71A] | 0.18 |
| UAACUGGGGGCCACAGCAGAAGCGUUCACGCCGCAGCCCUUGCCAGAUUCUGGUGAGUCUGCGAAUUCUGCUGUAUAUCUC [A5U U31C C40U U43C A57G] | 0.08 |
| UAACUGGGGGCCACAGCAGAAGCGUUCACGCCACGGCCCUUGUCAGACUCUGGUGAAUCUGCGAAUACUGCUGUAUAUCUC [A5U U31C G33A A35G C40U U48C U67A] | 0.12 |
| UAACUGGGGGCCACAGCAGAAGCGUUCACGCCGCAUCCCCUGUCAGAUUCUGGUGAAUCAGCGAAUUCUGCUGUAUAUCUC [A5U U31C G36U U60A] | 0.11 |
| UAACUGGGGGCCACAGCAGAAGCGUUCACGCCGCAGCCCCUGUCAGAUUCUGAUGAGUCUGCGAAUUCUGCUGUAUAACUC [A5U U31C G53A A57G U78A] | 0.73 |
| UAACUGGGGGCCACAGCAGAAGCGUUCACGCCGCAGCCCCUGUCAGAUUCUGGUGAAUCUGCUAAUUCUGCUGUAUAUCUC [A5U U31C G63U] | 0.88 |

| Variant | self-cleavage |
| --- | --- |
| UAACUGGGGGCCACAGCAGAAGCGUUCACGCCGCAGCCCCCGUCAGAUCCUGGUGAAUCUGCGAAUUCUGCUGUAUAUCUC [A5U U31C U41C U49C] | 0.31 |
| UAACUGGGGGCCACAGCAGAAGCGUUCACGCCGCAGCCCCUGUCAGAUUCCGGUGAAUCAGCGGAUUCUGCUUUAUAUCUC [A5U U31C U51C U60A A64G G73U] | 0.13 |
| UAACUGGGGGCCACAGCAGAAGCGUUCACGCCGCAGCCCCUGUCAGAUUCGGGUGAAUCUGCGAAUUCUGCUGUAUAUCUC [A5U U31C U51G] | 0.58 |
| UAACUGGGGGCCACAGCAGAAGCGUUCACGCCGCAGCCCCUGUCAGAUUCUGGUGAAUCUGCGAAUUCAGCCGUAUAUCUC [A5U U31C U69A U72C] | 0.15 |
| UAACUGGGGGCCACAGCAGAAGCGUUCACGUCGCAGCCCCAGUCAGCUUCUGGAGAAUCUGCGAAUUCUGCUGUAUAUCUC [A5U U41A A47C U54A] | 0.12 |
| UAACUGGGGGCCACAGCAGAAGCGUUCACGUCGCAGCCCCAGUCAGAUUCUGGUGGAUCUGCGAAUUCUGCUGUAUAUCUC [A5U U41A A56G] | 0.24 |
| UAACUGGGGGCCACAGCAGAAGCGUUCACGUCGCAGCCCCAGUCAGAUUCUGGUGAAUCUGCGUAUUCUGCUGUAUAUCUC [A5U U41A A64U] | 0.1 |
| UAACUGGGGGCCACAGCAGAAGCGUUCACGUCGCAGCCCCAGUCAGAUUCUGGUAAAUCUACGAAUUCUGCUGUAUACCUC [A5U U41A G55A G61A U78C] | 0.04 |
| UAACUGGGGGCCACAGCAGAAGCGUUCACGUCGCAGCCCCAGUCAGAUUCUGGUGAAUCAGCGAAUCCUGCUGUAUACCAC [A5U U41A U60A U67C U78C U80A] | 0.07 |
| UAACUGGGGGCCACAGCAGAAGCGUUCACGUCGCAGCCCCCGUCGGAUUCUGGUGAAUCUGCGUAUUCUGCUGUAUAUCUC [A5U U41C A45G A64U] | 0.35 |
| UAACUGGGGGCCACAGCAGAAGCGUUCACGUCGCAGCCCCCGUCGGAUUCUGGUGAAUCCGCGAAUUCUGCUGUAUAUCUC [A5U U41C A45G U60C] | 0.85 |
| UAACUGGGGGCCACAGCAGAAGCGUUCACGUCGCAGCCCCCGUCUGAUUCUGGUGAAUCUGCGAAUUCUGCUGUAUAUCUC [A5U U41C A45U] | 0.48 |
| UAACUGGGGGCCACAGCAGAAGCGUUCACGUCGCAGCCCCCGUCAGGUUCUGGUGAGUCUGCGAAUUCCGCUGUAUAUCUC [A5U U41C A47G A57G U69C] | 0.17 |
| UAACUGGGGGCCACAGCAGAAGCGUUCACGUCGCAGCCCCCGUCAGAUUCAGGUGAAUCUGCAAAUUCUGCUGCAUAUCUC [A5U U41C U51A G63A U74C] | 1.11 |
| UAACUGGGGGCCACAGCAGAAGCGUUCACGUCGCAGCCCCCGUCAGAUUCCAGUGAAUCUGCGAAAUCUGCUGCAUAUCUC [A5U U41C U51C G52A U66A U74C] | 0.39 |
| UAACUGGGGGCCACAGCAGAAGCGUUCACGUCGCAGCCCCCGUCAGAUUCUGGAGAAUCUGCGGAUUCUGCUGUAUAUCUC [A5U U41C U54A A64G] | 0.64 |
| UAACUGGGGGCCACAGCAGAAGCGUUCACGUCGCAGCCCCCGUCAGAUUCUGGAGAAUCUGCGAAUACUGCUGUAUAUCUC [A5U U41C U54A U67A] | 0.44 |
